Source: the supplement of paper PMC8728848
The list shows a part of the results.

Key:
Test in all cases: glycan array binding signal (z-score within array); higher = stronger binding
Details in all cases: glycan notation: IUPAC condensed, linker removed
[1] = biological target: Neu5Ac(a2-3)Gal(b1-4)[Fuc(a1-3)]GlcNAc6S
How it was run: (§1)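 The Consortium for Functional Glycomics database supplied 3228 glycan arrays, of which those lacking an available protein sequence were dropped. The binding signal, a within-array Z-score, was averaged across arrays of the same protein sequence and across linkers. Negative scores can be read as non-binding.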

[2] = biological target: Neu5Ac(a2-3)Gal6S(b1-4)GlcNAc
How it was run: as §1

[3] = biological target: Neu5Ac(a2-3)Gal6S(b1-4)[Fuc(a1-3)]GlcNAc
How it was run: as §1

Neu5Ac(a2-3)GalNAc = biological target: Neu5Ac(a2-3)GalNAc
How it was run: as §1

[4] = biological target: Neu5Ac(a2-3)GalNAc(b1-4)GlcNAc
How it was run: as §1

[5] = biological target: Neu5Ac(a2-3)[GalNAc(b1-4)]Gal(b1-4)Glc
How it was run: as §1

[6] = biological target: Neu5Ac(a2-3)[GalNAc(b1-4)]Gal(b1-4)GlcNAc
How it was run: as §1

[7] = biological target: Neu5Ac(a2-3)[GalNAc(b1-4)]Gal(b1-4)GlcNAc(b1-3)GalNAc
How it was run: as §1

[8] = biological target: Neu5Ac(a2-3)[Neu5Ac(a2-6)]GalNAc
How it was run: as §1

Neu5Ac(a2-6)Gal = biological target: Neu5Ac(a2-6)Gal
How it was run: as §1

[9] = biological target: Neu5Ac(a2-6)Gal(b1-3)GlcNAc(b1-3)[Gal(b1-4)GlcNAc(b1-6)]Gal(b1-4)Glc
How it was run: as §1

Neu5Ac(a2-6)Gal(b1-4)Glc = biological target: Neu5Ac(a2-6)Gal(b1-4)Glc
How it was run: as §1

[10] = biological target: Neu5Ac(a2-6)Gal(b1-4)GlcNAc
How it was run: as §1

[11] = biological target: Neu5Ac(a2-6)Gal(b1-4)GlcNAc(b1-2)Man(a1-3)Man(b1-4)GlcNAc(b1-4)GlcNAc
How it was run: as §1

[12] = biological target: Neu5Ac(a2-6)Gal(b1-4)GlcNAc(b1-2)Man(a1-3)[Gal(b1-4)GlcNAc(b1-2)Man(a1-6)]Man(b1-4)GlcNAc(b1-4)GlcNAc
How it was run: as §1

[13] = biological target: Neu5Ac(a2-6)Gal(b1-4)GlcNAc(b1-2)Man(a1-3)[GlcNAc(b1-2)Man(a1-6)]Man(b1-4)GlcNAc(b1-4)GlcNAc
How it was run: as §1

[14] = biological target: Neu5Ac(a2-6)Gal(b1-4)GlcNAc(b1-2)Man(a1-3)[GlcNAc(b1-2)Man(b1-4)GlcNAc(b1-2)Man(a1-6)]Man(b1-4)GlcNAc(b1-4)GlcNAc
How it was run: as §1

[15] = biological target: Neu5Ac(a2-6)Gal(b1-4)GlcNAc(b1-2)Man(a1-3)[Man(a1-6)]Man(b1-4)GlcNAc(b1-4)GlcNAc
How it was run: as §1

[16] = biological target: Neu5Ac(a2-6)Gal(b1-4)GlcNAc(b1-2)Man(a1-3)[Neu5Ac(a2-6)Gal(b1-4)GlcNAc(b1-2)Man(a1-6)]Man(b1-4)GlcNAc(b1-4)GlcNAc
How it was run: as §1

[17] = biological target: Neu5Ac(a2-6)Gal(b1-4)GlcNAc(b1-2)Man(a1-6)Man(b1-4)GlcNAc(b1-4)GlcNAc
How it was run: as §1

[18] = biological target: Neu5Ac(a2-6)Gal(b1-4)GlcNAc(b1-2)Man(a1-6)[Gal(b1-4)GlcNAc(b1-2)Man(a1-3)]Man(b1-4)GlcNAc(b1-4)GlcNAc
How it was run: as §1

[19] = biological target: Neu5Ac(a2-6)Gal(b1-4)GlcNAc(b1-2)Man(a1-6)[GlcNAc(b1-2)Man(a1-3)]Man(b1-4)GlcNAc(b1-4)GlcNAc
How it was run: as §1

[20] = biological target: Neu5Ac(a2-6)Gal(b1-4)GlcNAc(b1-2)Man(a1-6)[Man(a1-3)]Man(b1-4)GlcNAc(b1-4)GlcNAc
How it was run: as §1

[21] = biological target: Neu5Ac(a2-6)Gal(b1-4)GlcNAc(b1-3)Gal(b1-3)GlcNAc
How it was run: as §1

[22] = biological target: Neu5Ac(a2-6)Gal(b1-4)GlcNAc(b1-3)Gal(b1-4)GlcNAc
How it was run: as §1

[23] = biological target: Neu5Ac(a2-6)Gal(b1-4)GlcNAc(b1-3)Gal(b1-4)GlcNAc(b1-3)Gal(b1-4)GlcNAc
How it was run: as §1

[24] = biological target: Neu5Ac(a2-6)Gal(b1-4)GlcNAc(b1-3)Gal(b1-4)[Fuc(a1-3)]GlcNAc(b1-3)Gal(b1-4)[Fuc(a1-3)]GlcNAc
How it was run: as §1

[25] = biological target: Neu5Ac(a2-6)Gal(b1-4)GlcNAc(b1-3)GalNAc
How it was run: as §1

[26] = biological target: Neu5Ac(a2-6)Gal(b1-4)GlcNAc6S
How it was run: as §1

Neu5Ac(a2-6)GalNAc = biological target: Neu5Ac(a2-6)GalNAc
How it was run: as §1

[27] = biological target: Neu5Ac(a2-6)GalNAc(b1-4)GlcNAc
How it was run: as §1

[28] = biological target: Neu5Ac(a2-6)GlcNAc(b1-4)GlcNAc
How it was run: as §1

[29] = biological target: Neu5Ac(a2-6)GlcNAc(b1-4)GlcNAc(b1-4)GlcNAc
How it was run: as §1

Neu5Ac(a2-8)Neu5Ac = biological target: Neu5Ac(a2-8)Neu5Ac
How it was run: as §1

[30] = biological target: Neu5Ac(a2-8)Neu5Ac(a2-3)Gal(b1-3)GalNAc(b1-4)[Neu5Ac(a2-8)Neu5Ac(a2-3)]Gal(b1-4)Glc
How it was run: as §1

[31] = biological target: Neu5Ac(a2-8)Neu5Ac(a2-3)Gal(b1-4)Glc
How it was run: as §1

[32] = biological target: Neu5Ac(a2-8)Neu5Ac(a2-3)[Gal(b1-3)GalNAc(b1-4)]Gal(b1-4)Glc
How it was run: as §1

[33] = biological target: Neu5Ac(a2-8)Neu5Ac(a2-3)[GalNAc(b1-4)]Gal(b1-4)Glc
How it was run: as §1

[34] = biological target: Neu5Ac(a2-8)Neu5Ac(a2-8)Neu5Ac
How it was run: as §1

[35] = biological target: Neu5Ac(a2-8)Neu5Ac(a2-8)Neu5Ac(a2-3)Gal(b1-4)Glc
How it was run: as §1

[36] = biological target: Neu5Ac(a2-8)Neu5Ac(a2-8)Neu5Ac(a2-3)[GalNAc(b1-4)]Gal(b1-4)Glc
How it was run: as §1

[37] = biological target: Neu5Ac(a2-8)Neu5Ac(a2-8)Neu5Ac(a2-8)Neu5Ac(a2-3)[GalNAc(b1-4)]Gal(b1-4)Glc
How it was run: as §1

[38] = biological target: Neu5Ac(b2-6)Gal(b1-4)GlcNAc
How it was run: as §1

Neu5Ac(b2-6)GalNAc = biological target: Neu5Ac(b2-6)GalNAc
How it was run: as §1

[39] = biological target: Neu5Ac9Ac(a2-3)Gal(b1-3)GlcNAc
How it was run: as §1

B1: CVN (Nostoc ellipsosporum), P81180 (protein)
chain: LGKFSQTCYNSAIQGSVLTSTCERTNGGYNTSSIDLNSVIENVDGSLKWQPSNFIETCRNTQLAGSSELAAECKTRAQQFVSTKINLDDHIANIDGTLKYE
glycan array binding signal (z-score) [1]: -0.3 | glycan array binding signal (z-score) [2]: -0.308 | glycan array binding signal (z-score) [3]: -0.307 | glycan array binding signal (z-score) (Neu5Ac(a2-3)GalNAc): -0.303 | glycan array binding signal (z-score) [4]: -0.306 | glycan array binding signal (z-score) [5]: -0.305 | glycan array binding signal (z-score) [6]: -0.283 | glycan array binding signal (z-score) [7]: -0.195 | glycan array binding signal (z-score) [8]: -0.185 | glycan array binding signal (z-score) (Neu5Ac(a2-6)Gal): -0.303 | glycan array binding signal (z-score) [9]: 0.59 | glycan array binding signal (z-score) (Neu5Ac(a2-6)Gal(b1-4)Glc): -0.301 | glycan array binding signal (z-score) [10]: -0.299 | glycan array binding signal (z-score) [11]: -0.293 | glycan array binding signal (z-score) [12]: -0.308 | glycan array binding signal (z-score) [13]: -0.304 | glycan array binding signal (z-score) [14]: -0.303 | glycan array binding signal (z-score) [15]: -0.303 | glycan array binding signal (z-score) [16]: -0.295 | glycan array binding signal (z-score) [17]: -0.307 | glycan array binding signal (z-score) [18]: -0.303 | glycan array binding signal (z-score) [19]: -0.304 | glycan array binding signal (z-score) [20]: -0.305 | glycan array binding signal (z-score) [21]: -0.302 | glycan array binding signal (z-score) [22]: -0.284 | glycan array binding signal (z-score) [23]: -0.307 | glycan array binding signal (z-score) [24]: 0.537 | glycan array binding signal (z-score) [25]: 0.701 | glycan array binding signal (z-score) [26]: -0.304 | glycan array binding signal (z-score) (Neu5Ac(a2-6)GalNAc): -0.303 | glycan array binding signal (z-score) [27]: -0.3 | glycan array binding signal (z-score) [28]: -0.3 | glycan array binding signal (z-score) [29]: -0.293 | glycan array binding signal (z-score) (Neu5Ac(a2-8)Neu5Ac): -0.304 | glycan array binding signal (z-score) [30]: -0.296 | glycan array binding signal (z-score) [31]: -0.303 | glycan array binding signal (z-score) [32]: -0.246 | glycan array binding signal (z-score) [33]: -0.295 | glycan array binding signal (z-score) [34]: -0.305 | glycan array binding signal (z-score) [35]: -0.303 | glycan array binding signal (z-score) [36]: -0.237 | glycan array binding signal (z-score) [37]: -0.203 | glycan array binding signal (z-score) [38]: -0.302 | glycan array binding signal (z-score) (Neu5Ac(b2-6)GalNAc): -0.304 | glycan array binding signal (z-score) [39]: -0.304
